Experimental data as given in PubChem BioAssay AID686970 (National Center for Advancing Translational Sciences (NCATS), 2013).
Among all 360,000 compounds or so, about 6,000 (1.7%) were called active. This list was built around the results that the source calls inconclusive (neither active nor inactive); the mix of calls is not that of the screen. Calls come from the whole dose curve; as a rule, active = well fitted cell-killing curve with a large enough effect; inconclusive = small, poorly fitted or top-dose-only effect, or effect the other way; inactive = flat fitted curve, though single readings scatter. No potency is given beside an inconclusive call; the fits are too rough.
Potency is the fitted concentration of half-maximal effect; tags give direction and shape of the fitted curve.

Test: qHTS for induction of synthetic lethality in tumor cells producing 2HG: qHTS for the HT-1080-NT fibrosarcoma cell line;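 note: NT is the 2HG producing partner of a matched IDH1 knockdown line; nearly all actives have a fitted effect of over 55% in size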;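 for activity, negative = less viability: 0% = DMSO-treated cells and -100% = media-only wells without cells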
Settings: HT-1080-NT fibrosarcoma viability, CellTiter-Glo ATP luminescence, 48 h; activity, negative = less viability: at 46.1 µM (top of the series) unless noted
In short: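 Read-out is CellTiter-Glo luminescence after 10 minutes at room temperature, following 48 hours' compound treatment of HT-1080-NT cells (750 cells/well, RPMI, 5% FBS, 37 degrees C).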
In the case of `COc1cccc(NS(=O)(=O)c2ccc3[nH]cc(C(=O)NCCC(C)C)c(=O)c3c2)c1`, the Potency was active: 11.6 µM.
With `CC1(C)CC(=O)C(C(=O)/C=C/NCCc2ccccc2)C(=O)C1` the Potency was inconclusive [cytotoxic, single point].
With `COCc1c(C(=O)N2CCN(c3ncccn3)CC2)oc2ccccc12` the “activity, negative = less viability” value was inactive: -0.327%.
For `C#CCOCCOCCOCCNc1nc(N2CCN(C(=O)CCCCCCCCCCNC(=O)Cn3cc(C[C@@H](C)O)nn3)CC2)nc(N2CCN(C(=O)CCCCCCCCCCNC(=O)[C@H](CCCCN)n3cc(C[C@@H](C)CC)nn3)CC2)n1`, the Potency was inconclusive [cytotoxic, single point].
With `CNC(=O)C(C#N)(Cc1cc(C(C)=O)ccc1OC)Cc1cc(C(C)=O)ccc1OC` the “activity, negative = less viability” value was inactive: -4.55%.
For `Cc1cc(C)cc(N(C(=O)c2ccccn2)C(C(=O)NC2CCCCC2)c2ccncc2)c1` (stereo unspecified), the “activity, negative = less viability” value was inactive: -0.517%.
For `COc1ccc(/C=N/Nc2cc(C)nc3c(C)cccc23)cc1`, the activity, negative = less viability was inconclusive: -7.15% [cytotoxic].
In the case of `Cc1ccccc1Cn1c2ccccc2c2cnn(CC(=O)NCCCN3CCOCC3)c(=O)c21`, the Potency was inconclusive [cytotoxic, single point].
For `CC(SC#N)C(=O)C12CC3CC(CC(C3)C1)C2` (stereo unspecified), the Potency was inconclusive [cytotoxic, single point].
With `CC(=O)Nc1ccc(-c2ccnc3c2CC(C)(C(=O)Nc2ccccc2)O3)cc1` (stereo unspecified) the Potency was inconclusive [cytotoxic, partial curve].
In the case of `CCCCn1c(=O)[nH]c(=O)c2c1nc(-c1cccc(OC)c1)n2C`, the activity, negative = less viability was inconclusive: -25.5% [cytotoxic].
For `Cc1nn(C)c(C)c1N1C(=O)c2cccc3c(Br)ccc(c23)C1=O`, the Potency was active: 23.1 µM.
For `COc1ccccc1-c1nc(-c2ccccn2)no1`, the Potency was active: 20.6 µM.
In the case of `O=S(=O)(NCc1cn2ccccc2n1)c1cccs1`, the “activity, negative = less viability” value was inactive: 5.46%.
In the case of `Brc1ccc(-c2nc3ccccc3s2)s1`, the “activity, negative = less viability” value was inactive: -3.3%.
In the case of `O=C1CC(c2ccccc2)CC2=C1C=Nc1ccccc1N2` (stereo unspecified), the Potency was inconclusive [cytotoxic, single point].
For `CSc1cc(-c2ccc(Cl)cc2)c(C(=O)NN)s1`, the Potency was inconclusive [cytotoxic, single point].
With `Cc1[nH]c2ccccc2c1/C=N/Nc1nc2ccccc2[nH]1` the Potency was active: 18.4 µM.
For `COc1cc2c[n+](C)c3c4ccccc4ccc3c2cc1OC`, the Potency was inconclusive [cytotoxic, single point].
For `COc1ccc(-c2cnc3c(NC=O)cc(-c4ccc(S(C)(=O)=O)cc4)cn23)cc1OC`, the activity, negative = less viability was inconclusive: -32.6% [cytotoxic].
In the case of `CCOc1ccc(N(CC(=O)Nc2ccccc2OC)S(C)(=O)=O)cc1`, the “activity, negative = less viability” value was inactive: -19.4%.
For `C[C@@H](Oc1ccccc1)c1nnn(Cc2ccccc2)c1-c1c([C@@H](C)Oc2ccccc2)nnn1Cc1ccccc1`, the Potency was inconclusive [rising, single point].
With `Cn1c(SCC(=O)NNC(=O)Cc2ccccc2)nnc1-c1ccccc1` the “activity, negative = less viability” value was inactive: 19.7%.
In the case of `Cc1c(Br)c(C(F)(F)F)nn1CC(=O)NCc1ccccc1`, the “activity, negative = less viability” value was inactive: -13.8%.
With `O=C(CNC(=O)C(c1ccccc1)c1ccccc1)N/N=C\c1ccc2c(c1)OCO2` the Potency was inconclusive [cytotoxic, single point].
In the case of `c1ccc(CSc2nnc3ccc(-c4ccncc4)nn23)nc1`, the Potency was inconclusive [rising, single point].
In the case of `CC(C)(CO)C(O)C(=O)NCCC#N` (stereo unspecified), the activity, negative = less viability was inconclusive: 31.4%.
With `O=C(NC(=S)Nc1ccc(Cl)c(C(=O)O)c1)c1ccc(OCc2ccccc2)cc1` the activity, negative = less viability was inconclusive: -32.3% [cytotoxic].
With `COc1ccc(C(=O)N2CCC(n3c(C)nc4cc(F)ccc43)CC2)cc1` the Potency was inconclusive [cytotoxic, single point].
With `COc1ccc(CCNc2ncnc3c2nnn3Cc2ccccc2)cc1OC` the “activity, negative = less viability” value was inactive: -12.2%.
In the case of `CCOC(=O)C1=C2N(C)c3ccccc3N2CCC1=O`, the “activity, negative = less viability” value was inactive: 10.2%.
For `COc1ccc(-c2coc3c(C(=O)Nc4cccc(NS(C)(=O)=O)c4)cccc23)c(C)c1`, the Potency was inconclusive [cytotoxic, single point].
For `NC(=O)c1cc[n+](CC2=C(C(=O)O)N3C(=O)[C@@H](NC(=O)[C@@H](c4ccccc4)S(=O)(=O)[O-])[C@H]3SC2)cc1`, the “activity, negative = less viability” value was inactive: 12.8% [at 92.2 µM].
For `CCN1C(=O)C(CC(=O)Nc2ccc(OC)cc2)N(CCc2ccccc2F)C1=S` (stereo unspecified), the Potency was inconclusive [cytotoxic, partial curve].
In the case of `Cc1cc(Cl)ccc1C(O)c1ncc(-c2ccc(C(F)(F)F)cc2)[nH]1` (stereo unspecified), the Potency was inconclusive [cytotoxic, partial curve, poor fit].
In the case of `S=C(NCc1cccnc1)Nc1ccc(Oc2ccc(Cl)cc2)cc1`, the Potency was inconclusive [cytotoxic, partial curve].
In the case of `Cc1sc2nc(SCC(=O)c3cccs3)n(Cc3ccco3)c(=O)c2c1C`, the Potency was inconclusive [cytotoxic, single point].
With `CCOc1ccc(-n2c(C)nnc2SCC(=O)N(CC)CC)cc1` the “activity, negative = less viability” value was inactive: 10.8%.
In the case of `Cc1ccc(S(=O)(=O)NCc2ccc(C(=O)NCCN(Cc3ccccc3)C(C)C)cc2)cc1`, the Potency was inconclusive [cytotoxic, single point].
With `Nc1c(C(=O)Nc2ccc(S(=O)(=O)N3CCCC3)cc2)sc2nc3cc4c(cc3cc12)CCC4` the Potency was inconclusive [cytotoxic, full curve].
In the case of `CS(=O)(=O)n1nc(-c2ccc(Cl)cc2)nc1SCc1ccccc1`, the Potency was inconclusive [cytotoxic, single point].
For `Oc1c(C=Nc2cccc3nsnc23)ccc2ccccc12`, the Potency was inconclusive [cytotoxic, partial curve].
In the case of `Cc1ccc(C)c(NC(=O)c2ccc(S(=O)(=O)C(F)F)cc2)c1`, the activity, negative = less viability was inconclusive: 27.5%.
For `Nc1nc2cc(Cl)ccc2cc1C(=O)NCCCc1ccccc1`, the Potency was inconclusive [cytotoxic, single point].
In the case of `O=C(O)C1C2CCC(O2)C1C(=O)Nc1ccc(Br)cc1F` (stereo unspecified), the “activity, negative = less viability” value was inactive: -5.57%.
In the case of `O=C1CC(O)(c2ccccc2)C(c2ccccc2)=C1c1ccccc1` (stereo unspecified), the Potency was inconclusive [cytotoxic, single point].
For `COc1cc(/C=N/NC(=O)CCn2cnc(-c3ccccc3)c2-c2ccccc2)ccc1O`, the Potency was active: 16.4 µM.
For `Cc1ccc(/C=C/C(=O)N2CCN(Cc3ccccc3)CC2)o1`, the “activity, negative = less viability” value was inactive: 1.4%.
In the case of `CC(C)c1ccc(Nc2nc(NCc3ccco3)nc(N3CCOCC3)n2)cc1`, the Potency was inconclusive [cytotoxic, partial curve].
With `CN1/C(=C/C(=O)C2CCC2)Sc2ccccc21` the Potency was inconclusive [cytotoxic, single point].
With `CC(C)/C=N/NC(=O)c1ccc(Cl)cc1` the “activity, negative = less viability” value was inactive: 2.25%.
With `O=C(CSc1nnc(-c2ccco2)n1CC1CCCO1)c1ccc(F)cc1` (stereo unspecified) the “activity, negative = less viability” value was inactive: -9.69%.
In the case of `COC(=O)c1[nH]c2ccc(F)cc2c1NS(=O)(=O)c1ccc(OC)cc1`, the Potency was active: 5.17 µM.
In the case of `Cc1cc(NC(=O)NC(=O)c2ccccc2NC(=O)CN(C)C)ccc1Oc1ncc(Br)cn1`, the Potency was inconclusive [cytotoxic, single point].
For `c1ccc(Oc2ccccc2-c2cc(NCCc3cccnc3)n3nccc3n2)cc1`, the Potency was inconclusive [rising, single point].
For `O=C(Nc1cccc(Cl)c1)Nc1ccc2c(c1)OCO2`, the Potency was inconclusive [cytotoxic, single point].
With `C(=N\Nc1ccccc1)/c1ccc(N2CCOCC2)cc1` the Potency was inconclusive [cytotoxic, single point].
With `O=C(OCC(=O)N1CCN(C(=O)c2ccco2)CC1)c1ccccc1NCCO` the “activity, negative = less viability” value was inactive: 0.621%.
In the case of `CC1=Nc2cc(C(=O)NCCN3CCOCC3)ccc2Sc2c(C)ccc(C)c21`, the Potency was inconclusive [cytotoxic, partial curve].
In the case of `CC1Sc2ccc(S(=O)(=O)N3CCC(C(=O)N(C)Cc4ccccc4)CC3)cc2NC1=O` (stereo unspecified), the Potency was inconclusive [cytotoxic, single point].
In the case of `COC(=O)c1c(NC(=S)NN2CCN(C)CC2)sc2c1CCC(C)C2` (stereo unspecified), the Potency was active: 18.4 µM.
With `COCCCNC(=O)C1CCN(C(=O)c2oc3cc4sc(N(C)C)nc4cc3c2C)CC1` the Potency was inconclusive [rising, partial curve].
With `CC(=O)OCC1OC(OCc2cn(C[C@H]3CC[C@H](Cn4cc(COC5OC(COC(C)=O)C(OC(C)=O)C(OC(C)=O)C5OC(C)=O)nn4)O3)nn2)C(OC(C)=O)C(OC(C)=O)C1OC(C)=O` (stereo partly specified) the Potency was inconclusive [rising, single point].
In the case of `OC[C@@H]1CN(Cc2cccs2)C[C@H](n2cnc3c(NCc4ccc(F)cc4)ncnc32)O1`, the “activity, negative = less viability” value was inactive: -3.25%.
In the case of `Cc1ccc(NC(=O)CSc2nc(NS(=O)(=O)c3ccc(C)cc3)cc(=O)[nH]2)cc1`, the “activity, negative = less viability” value was inactive: -24.2%.
With `Cc1ccc(C(=O)N/N=C/c2cc(Br)ccc2O)cn1` the Potency was inconclusive [cytotoxic, full curve].
With `CC1(C)CC(=O)C2=C(C1)Oc1nc3ccccc3cc1C2C(C#N)C#N` (stereo unspecified) the Potency was active: 18.4 µM.
For `Cc1cc2c(NCc3ccccc3)ncnc2s1`, the “activity, negative = less viability” value was inactive: -9.26%.
With `COc1cc(C(=O)N(C)CC2CCN(CCc3cccc(C(F)(F)F)c3)CC2)ccc1C` the Potency was inconclusive [cytotoxic, single point].
For `O=C(/C=C/c1cn(-c2ccccc2)nc1-c1ccc2c(c1)OCCO2)NCCCN1CCOCC1`, the Potency was inconclusive [cytotoxic, single point].
With `O=C(Nc1cccc(S(=O)(=O)NC2=NCCC2)c1)c1cc(-c2ccccn2)nc2ccccc12` the Potency was active: 23.1 µM.
